According to PubChem BioAssay AID662 (National Center for Advancing Translational Sciences (NCATS), 2007):
Hit rate of the full screen: of about 71,000 compounds, about 1,800 (2.5%) were called active. This list was built around the results that the source calls inconclusive (neither active nor inactive); the mix of calls is not that of the screen. The call rests on the fitted dose curve; in most records, active means well fitted activation curve with a large enough effect in the signal ratio, with a control signal flat (not every such curve was filed as active); inconclusive means small, poorly fitted or top-dose-only effect, or effect the other way, or a change in a side signal; inactive means flat fitted curve, though single readings scatter; the % refers to the signal ratio. Potencies beside an inconclusive call are fits to weak or partial responses and may not hold up.
Potency means the concentration at half of the fitted maximal effect; tags describe the fitted curve by direction and shape.

Experiment: Cell signaling CRE-BLA (Fsk stim); on activity change, negative = inhibition: % of control where 0% means no effect
Conditions: CHO CRE-bla reporter (cAMP response element driving beta-lactamase), forskolin EC10, beta-lactamase ratio; activity change, negative = inhibition: at 38.2 µM (top of the series) unless noted
Summary of the method: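 Modulation of forskolin signalling: compounds in titration series added with EC10 NKH 477 to CHO cells carrying a CRE-driven beta-lactamase reporter, 3 h, 37C. CCF4 FRET ratio (460/530 nm, ex 405 nm) gives %activity and AC50.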
For `O=C(CSc1nc(-c2ccccc2)cs1)NC(=O)NCc1ccco1`, the Potency was “inactive”. For `CCn1c(=O)c2c(nc(SCc3ccccn3)n2C)n(C)c1=O`, the Potency was inconclusive: 10 µM [rising, partial curve]. In the case of `CC(C)c1nc2oc3c(NCc4ccccn4)ncnc3c2c2c1COC(C)(C)C2`, the Potency is reported as inconclusive: 0.1 µM [rising, partial curve]. For `Cc1cc(C)nc(NC2=NCCN2C(=O)Nc2ccc(Cl)c(Cl)c2)n1`, the Potency was “inactive”. In the case of `CCCC(=O)NCCc1cc2c(C)ccc(C)c2[nH]c1=O`, the Potency is reported as active: 12.6 µM. In the case of `COc1ccc(C)cc1-n1nnnc1SCn1nnc2ccccc2c1=O`, the Potency is reported as “inactive”. For `COc1ccc(C(c2nnnn2C(C)(C)C)N2CCN(c3nc4ccccc4s3)CC2)cc1` (stereo not given), the Potency was “inactive”. For `CCc1ccc(C2CC(c3ccccc3Cl)Nc3nc(N)nn32)cc1` (stereo not given), the Potency was “inactive”. For `CC(=O)Nc1ccc(C2(O)COc3ccccc3O2)cc1` (stereo not given), the activity change, negative = inhibition was inconclusive: -14.6%. With `COc1nc(-c2ccccc2)ccc1-c1noc(C)n1` the Potency was inconclusive: 12.6 µM [rising, single point]. With `CCCCNC(=O)C1CCCN(S(=O)(=O)c2ccc(-n3cnnn3)cc2)C1` (stereo not given) the activity change, negative = inhibition was inconclusive: -4.75%. For `CCCOP(=O)(c1ccc(N(C)C)cc1)C(O)c1cc(OC)c(OC)c(OC)c1` (stereo not given), the activity change, negative = inhibition was inconclusive: -23.4%. In the case of `COCCn1c(=O)c(-c2ccc(F)cc2)nc2cnc(Oc3cccc(Cl)c3)nc21`, the activity change, negative = inhibition is reported as inconclusive: 22.2%. With `Cc1csc2ncc(C(=O)NCc3ccccc3Cl)c(=O)n12` the Potency was inconclusive: 10 µM [rising, partial curve]. In the case of `N#Cc1c(N)nc2c(c1N)CC(=O)N2c1ccccc1-c1ccccc1`, the Potency is reported as inconclusive: 10 µM [rising, single point]. With `O=C(CCCCCn1c(SCc2ccncc2)nc2ccccc2c1=O)NCc1ccco1` the Potency was inconclusive: 12.6 µM [rising, partial curve]. In the case of `CCCC(=O)Nc1ncnc2c1ncn2[C@@H]1O[C@@H]2COP(=O)(O)O[C@H]2[C@H]1OC(=O)CCC`, the Potency is reported as inconclusive: 25.1 µM [rising, partial curve, poor fit]. For `O=c1c(CCc2ccccc2)nc2cnc(N3CCNCC3)nc2n1-c1ccccc1`, the Potency was inconclusive: 10 µM [rising, partial curve]. In the case of `COc1ccccc1NC(=O)COC(=O)CNC(=O)c1ccc(OC)c(OC)c1`, the activity change, negative = inhibition is reported as inconclusive: 29%. In the case of `CC(=O)N(Cc1cc2ccc(C)c(C)c2n2nnnc12)C1CCCC1`, the Potency is reported as inconclusive: 2.51 µM [rising, partial curve]. For `CCCc1nc(SCC(=O)Nc2cc(C)on2)c2ccccc2n1`, the Potency was “inactive”. In the case of `CCN(CC)S(=O)(=O)c1ccc(OC(C)C)nc1`, the Potency is reported as “inactive”. For `COc1ccc2c(c1OC)C(=O)N(c1ncn[nH]1)C2`, the Potency was inconclusive: 10 µM [rising, partial curve, poor fit]. For `Cn1c(N2CCCC2)nc2c1c(=O)n(Cc1ccc(Cl)cc1)c(=O)n2C`, the Potency was inconclusive: 5.01 µM [rising, partial curve]. For `COc1ccc2cc3cc(C(=O)NCc4ccc5c(c4)OCO5)oc3nc2c1`, the activity change, negative = inhibition was inconclusive: 0.285%. For `O=C(NCc1cccs1)c1nc2c(nnn2Cc2ccccc2Cl)c(=O)[nH]1`, the Potency was inconclusive: 25.1 µM [rising, single point]. In the case of `O=C(COC(=O)CCC(=O)Nc1nccs1)NCc1ccco1`, the Potency is reported as “inactive”. For `O=C(N[C@@H](c1ccccc1)[C@@H]1C[C@H]1C(=O)O)OCc1ccccc1`, the Potency was “inactive”. With `Cn1c(=O)c2c(ncn2CC(O)CNc2ccc(Cl)cc2)n(C)c1=O` (stereo not given) the activity change, negative = inhibition was inconclusive: 18.1%. For `O=C(COC(=O)c1ccccc1F)c1ccc(-n2nncc2-c2ccco2)cc1`, the activity change, negative = inhibition was inconclusive: 18.4%. For `COc1cccc(C(=O)N(Cc2cc3cc(C)ccc3[nH]c2=O)CC2CCCO2)c1` (stereo not given), the Potency was “inactive”. In the case of `CCCCCCOC(=O)C(C#N)c1nc2ccccc2nc1N1CCN(C)CC1` (stereo not given), the activity change, negative = inhibition is reported as inconclusive: -15.6%. For `c1ccc2c(c1)OCC(CNc1ncnc3nc[nH]c13)O2` (stereo not given), the Potency was inconclusive: 10 µM [rising, partial curve]. In the case of `CNC(=O)c1ccccc1`, the Potency is reported as “inactive”. For `CCOC(=O)c1nnc2cc(-c3ccccc3)nn2c1C`, the Potency was “inactive”. For `COc1cccc(-n2c(SCC(=O)NC3CCCCC3)nc3n[nH]c(C)c3c2=N)c1`, the Potency was active: 5.01 µM. For `COc1cc2cc(CN(Cc3nnnn3Cc3ccccc3)CC3CCCO3)c(=O)[nH]c2cc1OC` (stereo not given), the Potency was inconclusive: 12.6 µM [rising, single point]. With `Cc1cc(=O)oc2cc(OCC3CC(c4ccc(N(C)C)cc4)=NO3)ccc12` (stereo not given) the Potency was “inactive”. In the case of `Cc1c(NC(=O)CSc2ccccn2)c(=O)n(-c2ccccc2)n1C`, the Potency is reported as inconclusive: 12.6 µM [rising, partial curve]. With `CCN(CC)Cc1c(O)ccc2c(-c3ccccc3)cc(=O)oc12` the Potency was “inactive”. In the case of `CCOC(=O)N1CCC(Nc2cccc(SC)c2)CC1`, the activity change, negative = inhibition is reported as inconclusive: -19.3%. For `CCN1CCCC1CNc1ncnc2c1[nH]c1ccc(F)cc12` (stereo not given), the activity change, negative = inhibition was inconclusive: 15.7%. In the case of `CC(=O)Nc1ccc(C(=O)OCCC(C)C)cc1`, the activity change, negative = inhibition is reported as inconclusive: 16.7% [at 7.6 µM]. For `CCCCOCCCNC(=O)Cc1ccccc1OC`, the Potency was inconclusive: 1 µM [rising, single point]. With `O=C(Nc1cccc2cccc(NC(=O)c3ccco3)c12)c1ccco1` the Potency was “inactive”. In the case of `COc1c(Cl)cc(Cl)cc1/C=N/n1cnnc1`, the activity change, negative = inhibition is reported as inconclusive: -4.35%. For `Cn1c(=O)[nH]c(=O)c2c1nc(N1CCCCCC1)n2CC(=O)c1ccccc1`, the Potency was “inactive”. For `O=C(CSc1nc2ccccc2c(=O)n1CCC(=O)N1CCCCC1)NCc1ccccc1`, the Potency was inconclusive: 10 µM [falling, single point]. With `C1CCOC1` the Potency was “inactive”. For `COC(=O)C(C)Oc1ccc2c3c(c(=O)oc2c1)CCCCC3` (stereo not given), the Potency was inconclusive: 12.6 µM [rising, single point]. With `CCOC(=O)CSc1nc(N)c(C#N)c(CC(C)C)c1C#N` the Potency was inconclusive: 10 µM [rising, single point]. With `O=S(=O)(Nc1nc2ccccc2nc1NCc1ccco1)c1ccccc1` the activity change, negative = inhibition was inconclusive: -1.51%. In the case of `O=C(Nc1ncnc2c1CCC2)C12CC3CC(CC(C3)C1)C2`, the activity change, negative = inhibition is reported as inconclusive: -4.22%. For `Cc1cc(NS(=O)(=O)c2ccc(NC(=O)c3ccoc3C)cc2)nc(C)n1`, the activity change, negative = inhibition was inconclusive: 11.6%. For `COc1ccc(OC)c(C(c2nnnn2C2CCCC2)N2CCN(c3ccccc3F)CC2)c1` (stereo not given), the Potency was “inactive”. For `C[C@@H](C(=O)N[C@@H](CO)Cc1ccccc1)[C@@H]1C[C@@]1(C)[C@@H](NC(=O)OCc1ccccc1)c1ccccc1`, the Potency was “inactive”. For `Cc1nc(SCC(=O)O)c2oc3ccccc3c2n1`, the Potency was inconclusive: 12.6 µM [rising, single point]. In the case of `CNC(=O)C1=NCCCc2cc(OC)c(OC)cc21`, the Potency is reported as “inactive”. With `CCNc1ncc2nc(-c3ccc(OC)cc3)c(=O)n(-c3ccc(OC)cc3)c2n1` the Potency was inconclusive: 10 µM [rising, partial curve]. For `c1cncc(-c2cncnc2NC2CCNCC2)c1`, the activity change, negative = inhibition was inconclusive: -5.13%. In the case of `Cc1cc(C)c(NC(=O)CS(=O)CC(=O)NCC2CCCO2)c(C)c1` (stereo not given), the Potency is reported as “inactive”. For `O=C(c1cccc2c1-c1ccccc1/C2=N/O)N1CCCCC1`, the activity change, negative = inhibition was inconclusive: -20.8%. With `CSc1nnc(-c2ccc(NC(=O)CCc3ccccc3)cc2)n1C` the Potency was “inactive”. In the case of `O=C(c1ccco1)c1cn(CC(=O)N2CCCc3ccccc32)c2ccccc12`, the Potency is reported as “inactive”. In the case of `CC(=O)c1cc2c(cc1NC(=O)Nc1cccc(Cl)c1)OCCO2`, the Potency is reported as “inactive”. In the case of `Cc1cc(NC(=O)CSc2cn(CCNC(=O)c3ccc(Cl)cc3)c3ccccc23)no1`, the activity change, negative = inhibition is reported as inconclusive: -12.7%. With `COc1ccccc1CNc1ncncc1-c1ccccc1Cl` the Potency was “inactive”. In the case of `CCN(CC)C(=O)COc1ccc2oc(C)c(C(=O)OC(C)C)c2c1`, the Potency is reported as inconclusive: 10 µM [rising, partial curve]. In the case of `N=c1c2c3c(sc2ncn1CCN1CCOCC1)CCCCC3`, the activity change, negative = inhibition is reported as inconclusive: 11%. With `O=C(O)c1ccccc1-c1ccccc1C(=O)Nc1ccc2c(c1)[nH]c(=O)c1ccccc12` the activity change, negative = inhibition was inconclusive: -0.714% [at 7.6 µM]. With `CCOC(=O)C1CCCN(CC(=O)Nc2c(C(=O)OC)[nH]c3ccc(Br)cc23)C1` (stereo not given) the Potency was inconclusive: 10 µM [rising, single point]. In the case of `CCCOC(=O)C1=C(C)NC2=C(C(=O)CC(C)(C)C2)C1c1ccc(N(C)C)cc1` (stereo not given), the Potency is reported as “inactive”. In the case of `Clc1cc(Br)ccc1OCCOCCN1CCOCC1`, the Potency is reported as “inactive”. In the case of `O=C(C1CCCN(S(=O)(=O)c2cccc3nsnc23)C1)N1CCN(c2ccccn2)CC1` (stereo not given), the activity change, negative = inhibition is reported as inconclusive: -1.86%. In the case of `CCOC(=O)c1[nH]c(=O)[nH]c1COC(=O)c1cc2ccccc2o1`, the activity change, negative = inhibition is reported as inconclusive: -5.29% [at 7.6 µM]. For `C=CCc1ccc(OCC(O)CN2CCCCC2)c(OC)c1` (stereo not given), the activity change, negative = inhibition was inconclusive: 6.57%. For `COc1ccc(-n2c(=O)c(-c3cccs3)nc3cnc(N(C)C)nc32)cc1`, the Potency was inconclusive: 12.6 µM [rising, single point]. With `CCC(=O)Nc1cc2nn(-c3ccccc3)nc2cc1Cl` the Potency was “inactive”. With `CN(C)c1cccc(C(=O)OCC(=O)NCC2CCCO2)c1` (stereo not given) the Potency was “inactive”. With `COc1ccccc1NC(=O)N1c2ccc(F)cc2CCC1C` (stereo not given) the Potency was “inactive”. In the case of `CCN(CC)CC(=O)Nc1ccc2c(c1)Nc1ccccc1CC2`, the activity change, negative = inhibition is reported as inconclusive: -2.09%. In the case of `COc1ccc(Oc2ncc3ncc(=O)n(Cc4ccc(F)cc4)c3n2)cc1`, the activity change, negative = inhibition is reported as inconclusive: 9.32%. In the case of `CCOc1ccc(NC2=NC(C(=O)NCc3ccccc3)CC(=O)N2)cc1` (stereo not given), the activity change, negative = inhibition is reported as inconclusive: 25.6%. In the case of `CCCCNc1cc(C)oc(=O)c1C(C)=O`, the Potency is reported as inconclusive: 10 µM [rising, single point]. With `O=C(Nc1cccc(-c2cn3ccccc3n2)c1)c1cnccn1` the activity change, negative = inhibition was inconclusive: 23.9%.
